Assay results: PubChem BioAssay AID1645887 (National Center for Advancing Translational Sciences (NCATS), 2021)
Where “and” joins values, the source holds several entries; their conditions need not be identical. Identical values can stand only once. The campaign covered roughly 16,000 compounds. About 40 (0.2%) were called active. About 1% were inconclusive and are not listed. The call rests on the fitted dose curve; in most records, active means well fitted activation curve with a large enough effect; inconclusive means small, poorly fitted or top-dose-only effect, or another doubt; inactive means no such curve, though single readings can be large or run the other way. This is one part of the list.

Molecular target: Rap guanine nucleotide exchange factor 4 (Homo sapiens) (UniProt Q8WZA2)
Chain of UniProt Q8WZA2 (Q8WZA2 whole entry, looked up): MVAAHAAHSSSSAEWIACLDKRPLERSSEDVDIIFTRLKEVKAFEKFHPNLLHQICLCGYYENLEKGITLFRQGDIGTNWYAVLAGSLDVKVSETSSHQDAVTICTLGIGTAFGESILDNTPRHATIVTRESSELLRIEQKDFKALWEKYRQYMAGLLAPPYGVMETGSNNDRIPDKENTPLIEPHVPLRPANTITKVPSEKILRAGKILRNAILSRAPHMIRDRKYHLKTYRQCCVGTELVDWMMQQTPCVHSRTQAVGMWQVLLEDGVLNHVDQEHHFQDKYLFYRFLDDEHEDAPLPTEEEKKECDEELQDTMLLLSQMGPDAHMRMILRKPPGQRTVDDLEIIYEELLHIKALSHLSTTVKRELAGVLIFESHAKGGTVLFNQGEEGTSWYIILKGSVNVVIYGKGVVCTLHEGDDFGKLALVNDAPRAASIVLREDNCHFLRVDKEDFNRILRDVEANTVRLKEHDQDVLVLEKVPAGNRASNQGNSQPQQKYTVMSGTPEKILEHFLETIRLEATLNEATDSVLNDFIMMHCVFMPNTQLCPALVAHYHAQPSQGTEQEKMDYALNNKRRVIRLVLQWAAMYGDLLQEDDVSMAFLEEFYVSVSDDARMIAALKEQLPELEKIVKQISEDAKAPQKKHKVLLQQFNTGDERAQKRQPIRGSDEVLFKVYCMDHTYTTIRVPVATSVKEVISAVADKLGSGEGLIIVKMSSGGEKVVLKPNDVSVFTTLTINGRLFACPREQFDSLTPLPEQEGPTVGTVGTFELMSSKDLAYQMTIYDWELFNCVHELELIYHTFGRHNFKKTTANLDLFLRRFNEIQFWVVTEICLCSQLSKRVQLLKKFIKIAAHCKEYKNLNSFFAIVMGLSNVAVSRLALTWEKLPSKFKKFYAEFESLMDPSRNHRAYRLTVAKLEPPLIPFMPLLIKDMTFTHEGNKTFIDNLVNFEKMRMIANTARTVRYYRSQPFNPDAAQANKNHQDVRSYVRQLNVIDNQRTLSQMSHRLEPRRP
Experiment: Validation qHTS for agonist of cAMP-regulated guanine nucleotide exchange factor 4 (EPAC2);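 further: exchange makes BODIPY-GDP fluorescence drop when released from Rap1B; series mostly up to about 150 µM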
Details: EPAC2 Rap1B BODIPY-GDP exchange, fluorescence; activation: hits give high values
How it was run: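 Fluorescent exchange assay: 100 nM EPAC2 with 250 nM RAP1B-BODIPY-GDP and 50 uM GDP; compound added, 5 min at room temperature, then read (ex 480/em 540 nm) every 5 min for 30 min. Normalized to 6.5 mM cAMP agonist control.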
On the % scale 0 is the no-effect control and ±100 the full control effect.

activation, inactive:
Nc1nc(/C(=C/CC(=O)O)C(=O)N[C@@H]2C(=O)N3C(C(=O)O)=CCS[C@H]23)cs1 -7.71%, O=C(Oc1ccccc1)N1CCC[C@@]2(CCN(c3ccncc3)C2)C1 0.271%, CCc1cc(Cl)c(OC)c(C(=O)NC[C@@H]2CCCN2CC)c1O -3.37% and -10% and -5.33%, COCCn1c(=O)c(-c2cccc(Cl)c2)nc2cncnc21 -12.4%, CN(C)CCOC(=O)C(c1ccccc1)C1(O)CCCC1 (stereo not drawn) 9.63%, C[N+]1(C)C2CC(OC(=O)[C@H](CO)c3ccccc3)CC1C1OC12 (stereo partly drawn) -65% and -35.6%, CCCCN1CC[C@H]2C=CC[C@@H](C(=O)NCCc3ccccc3)[C@H]2C1=O -16.7%, Cc1cnc(-n2ncc(C(=O)NCC(C)(C)N3CCOCC3)c2C(C)C)nc1-c1ccc(F)cc1 -1.78%, COc1ncc2nc(-c3ccc(Cl)cc3)c(=O)n(Cc3cccs3)c2n1 3.09%, O=C(O)c1ccc2c(c1)OCO2 -21.8%, COc1ccc(-n2c(=O)c(-c3ccc(F)c(F)c3)nc3cncnc32)cc1 -14.3%, O=C(/C=C/c1ccccc1)c1ccc(O)cc1 -8.85%, CN(Cc1ccco1)c1cc(-c2ccccc2Cl)ncn1 -2.47%, COc1ccc(CN2CC[C@H]3C=CC[C@@H](C(=O)Nc4ccc(Cl)c(C(F)(F)F)c4)[C@H]3C2=O)cc1OC -25.8%, Nc1[nH]c(=O)ncc1F 1.38%, CCC(=O)O[C@]1(C(=O)SCF)[C@H](C)C[C@H]2[C@@H]3C[C@H](F)C4=CC(=O)C=C[C@]4(C)[C@@]3(F)[C@@H](O)C[C@@]21C -14.1%, CC1(C)S[C@@H]2[C@H](NC(=O)COc3ccccc3)C(=O)N2[C@@H]1C(=O)OCc1cccc2cccnc12 -13.4%, CCCCCCCCN1[C@@H](CC(C)=O)c2ccc(/C=C/C(C)=O)cc2S1(=O)=O -29%, Nc1ccn([C@H]2C[C@H](O)[C@@H](CO)O2)c(=O)n1 -7.69%, Cc1oc(-c2ccccc2NC(=O)C2CCCO2)nc1CNC(=O)c1cc(F)c(F)cc1F (stereo not drawn) -7.07%, O=C(O)CN(CCN(CC(=O)O)CC(=O)O)CC(=O)O -8.43% and -15.6%, CC(C)(C)[C@H]1CCC(=O)N([C@H](CSc2ccccc2)Cc2ccccc2)CC1 -28.5%, COc1ccc2[nH]cc(CCNc3ccnc(-c4cccc(C#N)c4)n3)c2c1 5.11%, COc1ccccc1CN1CCC2(CC1)CCN(C(C)=O)CC2 -0.0278%, Clc1cccc(Cl)c1NC1=NCCN1 -8.88% [middle of 4 runs], CC(=O)NCCNc1cc(-c2ccccc2CN(C)C)ncn1 -3.19%, Cn1cccc1C(=O)N1CCC2(CCN(C(=O)Nc3ccccc3)CC2)CC1 -10.3%, O=C1[C@H]2CCCC[C@H]2C(=O)N1CCCCN1CCN(c2nsc3ccccc23)CC1 -29.3%, CCCCCCC[n+]1ccc(/C=C/c2c[nH]c3ccccc23)c2ccccc21 29%, C[C@]12C=CC(=O)N[C@@H]1CC[C@@H]1[C@@H]2CC[C@]2(C)[C@@H](C(=O)Nc3cc(C(F)(F)F)ccc3C(F)(F)F)CC[C@@H]12 -4.5%, CC(C)C[C@@H](CO)N1CCNCCC1=O -11.4%, CCN1C(=O)c2ccccc2C1Nc1ccc(OCCN2CCCCC2)cc1 (stereo not drawn) -7.25%, Cc1ncc(CO)c(C=O)c1O -8.02% and 14.8%, COc1ccc(-c2nc3cnc(N4CCN(C)CC4)nc3n(Cc3cccc(OC)c3)c2=O)cc1 -2.28%, COc1ncc2nc(-c3cn(C)c4ccccc34)c(=O)n(CCc3ccccc3)c2n1 -4.01%, CN(C)c1ccc(N=NS(=O)(=O)O)cc1 -15.3%, Cc1cnc(CNc2ccnc(-c3ccccc3C(F)(F)F)n2)cn1 -6.93%, COC(=O)c1ccccc1-c1cc(C)cc2c1OC(CNC(=O)c1occc1C)C2 (stereo not drawn) 5.16%, CN1CCN(c2ncc3nc(-c4cc(F)cc(F)c4)c(=O)n(Cc4cccs4)c3n2)CC1 -5.57%, Cc1cnc(CNc2ncncc2-c2cccc(NS(C)(=O)=O)c2)cn1 -15.2%, CC(C)c1ncc([N+](=O)[O-])n1C -1.08%, O=c1c(-c2cccs2)nc2cnc(Oc3ccccc3)nc2n1Cc1cccs1 -7.11%, CCCCNC(=O)[C@@H]1CC=C[C@@H]2CCN(C3CC3)C(=O)[C@@H]21 -24.6%, COC(=O)c1ccccc1-c1cc(C)cc2c1OC(CNC(=O)C1CCCO1)C2 (stereo not drawn) 3.81%, COc1cc2c(cc1OC)OC(C)(C)C=C2 -18.6%, CCC1C(=O)NCCN1Cc1ccc2c(c1)CN(Cc1ccc(F)c(OC)c1)CCO2 (stereo not drawn) -5.02%, COCCn1c(=O)c(-c2ccc(OC)cc2)nc2cnc(N3CCN(C)CC3)nc21 8.36%, CO/N=C(/C(=O)NC1C(=O)N2C(C(=O)O)=C(COC(N)=O)CSC12)c1ccco1 (stereo not drawn) -19.3%, CCCS(=O)(=O)NCc1c(C)ncc2c1CCN(C(=O)c1ccc(Cl)cc1)C2 -1.59%, CCCNC(=O)NS(=O)(=O)c1ccc(Cl)cc1 -8.85% and -14.6% and -40.7%, CCN(CC)C(C)CN1c2ccccc2Sc2ccccc21 (stereo not drawn) 2.15% and -19.4% and -29.9%, COCCNc1ccnc(-c2ccccc2C(F)(F)F)n1 3.43%, CC(=O)O[C@]1(C(C)=O)CC[C@H]2[C@@H]3C=C(Cl)C4=CC(=O)CC[C@]4(C)[C@H]3CC[C@@]21C -1.01%, CN1CCN(CCc2ccc(Cl)c(Cl)c2)CC1 -4.32%, COc1cccc(CCNc2ncnc3sc(C(=O)N4CCN(C)CC4)c(C)c23)c1 -21.9%, CCC1C(=O)NCCN1Cc1ccc2c(c1)CN(Cc1ccc3c(c1)OCCO3)CCO2 (stereo not drawn) -13.9%, CO[C@H]1[C@H](NC(=O)c2ccco2)c2ccccc2C12CCN(Cc1cnn(-c3ccccc3)c1)CC2 -10.6%, CC(=O)OC/C=C(\C)CC/C=C(\C)CC/C=C(\C)CC/C=C(\C)CC/C=C(\C)CC/C=C(\C)CC/C=C(\C)CC/C=C(\C)CCC=C(C)C -1.03%, CN1CCN(c2ncc3nc(-c4cn(C)c5ccccc45)c(=O)n(-c4ccccc4)c3n2)CC1 -9.69%, Cc1ccsc1C(=O)N(Cc1cc2cc3c(cc2nc1N1CCOCC1)CCC3)CC1CCCO1 (stereo not drawn) -10.5%, COC(=O)C1CCN(Cc2ccc3c(c2)CN(C(=O)c2cc(C)on2)CCO3)CC1 -3.7%, Cc1cccc(CNc2cc(-c3ccccc3Cl)ncn2)c1 1.1%, NCCCCCC(=O)O 11.6% and -11.8% and -19.7%, CN(C)c1ccc(/C=C/c2cc(Cl)nc3ccccc23)cc1 -20.3%, O=C1C[C@H]2C=CCc3cccc(c32)CN1Cc1cccc(F)c1 -31.7%, CCc1ccc(S(=O)(=O)NCc2nc(N3CCCC3)c3cccc(C)c3n2)cc1 -1.03%, C=CC(C)(C)c1c2c(c(O)c3c(=O)c4ccc(O)c(O)c4oc13)C=CC(C)(C)O2 -70.7%, Cc1cc(C)n(-c2cccc(C(=O)NCC3Cc4cccc(-c5cccnc5)c4O3)c2)n1 (stereo not drawn) 2.23%, CC(C)CN1CC2(CCN(C(=O)c3ccco3)CC2)C1 3.03%, CNCCc1ccccn1 -10.8% and -19.2%, C[C@@H]1CN(Cc2ccc3c(c2)CN(Cc2cccc(O)c2)CCO3)C[C@H](C)O1 -13.4%, COc1ccc(Oc2ncc3ncc(=O)n(CCc4ccccc4)c3n2)cc1 -5.59%, Cc1cccc2nc(CNC(=O)CN3Cc4ccccc4OC(c4ccccc4F)C3)cn12 (stereo not drawn) -19.4%, Cc1noc(C)c1C(=O)N1CCC2(CCN(Cc3ccncc3)CC2)CC1 -1.44%, CC1=C(C)C(=O)C(C(CCCCCC(=O)O)c2ccccc2)=C(C)C1=O (stereo not drawn) -13.1%, Cn1cc(-c2nc3cnc(N4CCNCC4)nc3n(C3CC3)c2=O)c2ccccc21 -16.5%, CC(=O)N1CCC2(CCN(Cc3ccncc3)CC2)CC1 -8.39%, O=C1C[C@H]2C=CCc3cccc(c32)CN1Cc1ccc(Cl)cc1 -6.37%, C[C@@H](C1[C@@H](O)CC2C3C=CC4C[C@@H](O)CC[C@]4(C)[C@H]3CC[C@@]21C)[C@@H]1CCCCN1 (stereo partly drawn) -6.44%, COC(=O)C1CCN(c2nc(CN(C)C3CCOC3)nc3cc(OC)c(OC)cc23)CC1 (stereo not drawn) -3.51%, N#C/C(=C\c1ccc(O)c(O)c1)C(=O)NCCCCc1ccccc1 -20.5%, Cc1cnc(-n2ncc(C(=O)NCc3ccncc3)c2C2CC2)nc1-c1cccs1 -1.24%, CCCCCCCCCCCCCCCC(=O)OC[C@H](O)[C@H]1OC(=O)C(O)=C1O -18.7%
